# Test results published in PubChem BioAssay (NCI).
#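 Briefly, cells in 96-well plates were exposed to five compound concentrations for 48 h, and endpoints were estimated by linear interpolation. GI50 is the concentration that inhibits growth by half. TGI: concentration producing complete growth inhibition.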 Peptide text beside a SMILES is read from it. * marks the point of attachment. Boc = CC(C)(C)OC(=O)*; OBn = c1ccc(CO*)cc1
# Tested on: NCI-H322M lung
# Assay: growth of human tumour cells (NCI), 48 h
Compound,TGI [µM],GI50 [µM]
COc1ccccc1N=Nc1c(O)c(S(=O)(=O)O)cc2cc(S(=O)(=O)O)ccc12,> 100,–
CC1CN(S(=O)(=O)c2oc(-c3ccc(Cl)cc3)nc2C#N)CC(C)O1 (centres undefined),31.8,17.3
Cn1c([C@H](C#N)C(=O)c2cc(O)ccc2[N+](=O)[O-])nc2ccccc21,> 100,–
CC(C)(O)/C=C/C(=O)[C@](C)(O)[C@H]1[C@H](O)C[C@@]2(C)[C@@H]3CC=C4[C@@H](C[C@H](O)C(=O)C4(C)C)[C@]3(C)C(=O)C[C@]12C,26.6,–
CC(C)CC(NC(=O)OC(C)(C)C)C(=O)NC(CC(=O)OCc1ccccc1)C(=O)OCc1ccccc1 (stereo not drawn) (Boc-Leu-Asp(OBn)-OBn; configuration not given here),> 100,–
COc1ccc(-c2cc(C(=O)Nc3cc(C(F)(F)F)cc(C(F)(F)F)c3)c3ccccc3n2)cc1,20.2,–
C#CCNC(=S)N/N=C(\C)c1ccccn1,> 100,0.421
CSc1nc(NC2OC(COC(C)=O)C(OC(C)=O)C(OC(C)=O)C2OC(C)=O)c(N=C(C)C(C)=O)c(=O)[nH]1 (centres undefined),> 100,–
Cc1cc(NC(=O)C2C3C=CC(O3)C2C(=O)O)no1 (centres undefined),> 100,–
NNc1cnn(-c2ccccc2)c(=O)c1Cl,> 100,–
O=CC(O)C(O)C(O)C1CNC(=S)O1 (centres undefined),> 100,–
Cc1cc(Nc2nc(C(=O)Nc3ccccc3)nc3ccccc23)n[nH]1,> 25,11.2
Nc1nccc(NCC2(CO)CCC2)n1,> 100,–
COC(=O)CC(C(C(=O)OCc1ccccc1)C(C)O)N1C(=O)OC(c2ccccc2)C1c1ccccc1 (centres undefined),> 100,–
CCOC(=O)c1c(C)nc2c(c1-c1cn(-c3ccccc3)nc1-c1ccccc1)C(=O)c1ccccc1-2,> 100,–
O=S1(=O)N(Cc2ccccc2)[C@@H](Cc2ccccc2)[C@H](O)[C@H](O)[C@H](Cc2ccccc2)N1Cc1ccccc1,11.8,4.48
CC[C@@]1(OC(=O)CN)C(=O)OCc2c1cc1n(c2=O)Cc2c-1nc1cc3c(cc1c2CCl)OCO3,> 35.1,0.407
O=NN(CCF)C(=O)NC1CC2CCC1C2 (centres undefined),> 100,–
Cc1ccc(S(=O)(=O)[C@@H](Cl)[C@H]2N=C(Cl)NN=C2c2ccccc2)cc1,> 100,–
COC(=O)c1c(C)cccc1C1CN=NC12Cc1ccc(C)c(C)c1C2=O (centres undefined),> 100,–
Cc1cc(Cl)ccc1OCC(=O)Nc1nc(N)nc(N)n1,> 100,–
N#C/C(=C\c1cccc(O)c1O)C(N)=O,> 100,–
CC(C)(O)C1CC[C@]2(C)[C@H]3CC[C@@H]4[C@@]5(C)CCCC(C)(C)[C@@H]5CC[C@@]4(C)[C@]3(C)CC[C@@H]12 (some centres undefined),> 100,–
CCc1ccccc1NC(=O)/C=C/c1ccccc1,> 100,–
CCc1cccc(C)c1N1C(=O)C(=O)C(c2nc3ccccc3o2)C(=O)C1=O,> 100,–

Compound,TGI [µM],GI50 [µM]
Cc1cc(C)c2c(n1)sc1c(N)ncnc12,> 25,> 25
CCCC1C(=O)Nc2cccc3ncn(c23)C1=O (centres undefined),> 100,–
O=C1Nc2cc([N+](=O)[O-])c(Br)cc2C1=O,> 100,–
Cc1nc2ccc(Br)cc2c(=O)n1-c1ccc(NC2OCC(O)C(O)C2O)cc1 (centres undefined),> 100,–
COC(=O)c1c(CC(Cc2ccc3c(c2)CCCC3)C(=O)OC)ccc2c1CCCC2 (centres undefined),> 100,–
CCC(C)Oc1nc2c(c(=O)n(C)c(=O)n2C)n1C (centres undefined),> 100,> 100
CCOc1ccc2c(c1)C(=O)c1c-2n(CCCBr)c(=O)c2cc([N+](=O)[O-])ccc12,> 100,44
COC(=O)CCC12CCC(=O)C1[C@@H](C(=O)OC)C[C@H]2C(=O)OC (some centres undefined),> 100,–
CNc1ccc2ncccc2c1[N+](=O)[O-],> 100,–
O=C(N/C(=C\c1ccc(Br)cc1)c1nc2ccccc2[nH]1)c1ccccc1,49.2,–
CCOc1ccc(/C(C=O)=C(\Cl)c2ccc(OC)cc2)cc1,> 100,–
C=C1C(=O)O[C@H]2[C@H]1CC/C(COC(=O)NCc1ccc(OC)cc1)=C\CC[C@@]1(C)O[C@@H]21,22.7,10.7
O=C(/C=C/c1ccc(O)c(O)c1)NCc1c[nH]c2ccccc12,> 100,51.7
CN1N=C(c2ccncc2)OC1c1cccc(C(F)(F)F)c1 (centres undefined),> 100,–
O=C1C2=C(C(=O)c3cnccc31)C1C=CC2CC1 (centres undefined),36,21.1
COc1ccc(C(=O)c2cc3c(N)c(C(=O)Nc4ccccc4)sc3nc2C)cc1,> 100,2.85
[O-][n+]1c(CN2CCCCC2)nc2cccc3c2c1-c1ccccc1-3,51.8,–
Oc1ccccc1C1C=C(c2ccccc2)NC(N2CCCCC2)=C1c1nc2ccccc2[nH]1 (centres undefined),37.4,–
O=C1C(=O)N(c2ccc(Cl)cc2)C(=O)C(=O)C1c1nc2ccccc2s1,> 100,–
O=C(/C=C/c1ccc(C(F)(F)F)cc1)Nc1ccc(C=C2c3ccccc3C(=O)c3ccccc32)cc1,> 100,> 100
COc1ccc(OC(C(=O)O)C(C)C)c2c1CCCC2=O (centres undefined),> 100,–
Cc1ccc(Oc2ccccc2N)cc1,> 100,–
O=C(O)/C=C\C(=O)Nc1ccccn1,> 100,–
COC(=O)C1=C(O)C(C(=O)OC)[C@]2(O)[C@@H](C(=O)OC)[C@H]1C[C@@H](c1ccccc1)[C@@H]2C(=O)OC (some centres undefined),32.8,–
c1cc(-c2nnc(SSc3ncnc4nc[nH]c34)o2)ccn1,> 100,2.82
